Experimental data: the RNAGym collection of RNA variant scans (doi:10.7554/elife.90254)
Read counts are not given, so values of variants with three or more changes are uncertain.

B1: LINE1-full (parent)
chain: UACGUAGGUGGUUUUCCCCUGAUAGUGCUAAGGGGGCCUGGAAGUUUGGACUGGGCAGAGCUCAACACAGCGUGGCAAAGUGGCUGUGGCUAGACUGCCUCUCUGGAUUCCUCGUCACUCAGCAGGGCAUCUCUGAGAGAAAUGCC

Variants of: B1
Test: self-cleavage, relative activity (ratio to wild type); higher = more cleavage; in vitro, sequencing; the parent is a self-cleaving ribozyme

Row | Variant | self-cleavage
1 | U9G A79G A94G A140G | 1.02
2 | U9G A79G U85C | 0.57
3 | U9G A138G A141G | 0.88
4 | U9G G32A C131A A140U A142G | 1.73
5 | U9G G36C A141G | 0.54
6 | U9G G49A U87C A107G U132C | 0.25
7 | U9G G53A A129U U134A | 0.42
8 | U9G G60C U85A | 0.08
9 | U9G U12C U23C U73C U112G C113U C128U | 0
10 | U9G U14A A42U U104A | 1.52
11 | U9G U14C A50G U73A U85C | 0
12 | U9G U45C U102C A136U | 1.91
13 | U9G U47A G58U A121G | 0.26
14 | U9G U52A A94U | 0.31
15 | U9G U62C A79G U134A | 0.1
16 | U9G U73A U112C | 0.3
17 | U9G U87A U119C A141G | 0.47
18 | U9G U104A A129G | 0
19 | G10A A22G C71U U73C | 0.85
20 | G10A A31G U143A | 1.31
21 | G10A A42C U81G | 0.81
22 | G10A A42U C95U | 0.13
23 | G10A A43G U134C | 0.52
24 | G10A A50C U73A U96C | 0.11

Row | Variant | self-cleavage
25 | G10A A50G A107G | 1.53
26 | G10A A59G C111U A138G | 0.11
27 | G10A A64U G126A | 0.52
28 | G10A A65G A94G | 0.51
29 | G10A A65G G127U | 0.06
30 | G10A A77U A92G U134C | 0.16
31 | G10A A77U U100A | 0.89
32 | G10A A94G A124G | 0
33 | G10A A94U U112C | 0.39
34 | G10A G32A U91G A107U C123U A129G | 0.02
35 | G10A G32C U143C | 1.8
36 | G10A G53U U85A A92G A141G | 0.08
37 | G10A U12G U104A U115G | 0.81
38 | G10A U13C U62C U85C | 0.23
39 | G10A U13C U91C A136G A142G | 0.81
40 | G10A U14A A65G U100C A138G | 0
41 | G10A U14A A77U U85C A136U | 0.37
42 | G10A U14C C63U U104G A124U | 0.26
43 | G10A U15C U62C | 0.12
44 | G10A U20C A77U U87G | 0.16
45 | G10A U23A A42G U96A G122U | 0.05
46 | G10A U23C A77G | 2.03
47 | G10A U23C G74A U87A | 0.05
48 | G10A U29C U115C | 1.53

Row | Variant | self-cleavage
49 | G10A U45C U87A U100C | 0.14
50 | G10A U81C C113U | 1.33
51 | G10A U108C G127A | 1.55
52 | G10A U115A C145U | 1.26
53 | G10A U115A G135U | 1.41
54 | G10A U132C A136C | 0.95
55 | G10C A50G U87C | 0
56 | G10U A79G A142G | 1.11
57 | G10U G35A U119C | 0.26
58 | G10U G105U A142G | 1.75
59 | G10U U15A U62A A79G U109C A124G | 0.54
60 | G10U U23C A30U A57U | 0.29
61 | G10U U29C U39C A69U A79G C113U | 0
62 | G10U U62C A79G | 0
63 | G11A A22G A136G | 0.75
64 | G11A A42G U47C A77G | 2.23
65 | G11A A50C A64U A77G | 0.76
66 | G11A A50G C90A U104C | 0
67 | G11A A65G U134C | 0.1
68 | G11A A69U U143C | 0.08
69 | G11A A78G G89A G139U A141G | 0.06
70 | G11A A78U U112C | 1.37
71 | G11A A94G A140G | 0.23
72 | G11A C95U A129G A138G | 0.1

Row | Variant | self-cleavage
73 | G11A C113U A140G A142G | 0.98
74 | G11A U13A A124G | 0.53
75 | G11A U13C A31G U47C C120U | 0.73
76 | G11A U13C A64G A79G A142U | 0.39
77 | G11A U13C U46A G86A U132C A136G | 0.06
78 | G11A U13C U52A A57U A69U A77U | 0.04
79 | G11A U13C U52C U102A C120U | 0
80 | G11A U13G U62C C113A C128G | 0
81 | G11A U14C A43G U134A | 0.55
82 | G11A U15C C123U | 1.57
83 | G11A U15C U39C U52C | 0.72
84 | G11A U20A U47C | 1.55
85 | G11A U46A A65U U100C | 0.17
86 | G11A U47C U132C | 2.04
87 | G11A U52C U73C G74U | 2.51
88 | G11A U81C C84A U102A U115A | 0.2
89 | G11A U108A U112A | 1.95
90 | G11C C19U U47A A59G | 0.19
91 | G11C U15C A24U U62C U132C | 0.18
92 | G11U A42G A64G U115A | 0.26
93 | G11U C28A A77G | 1.15
94 | G11U G32U U62C A141G | 0.06
95 | G11U U13C G54A U62C G82A A136G | 0.03
96 | U12A A22G A24G U91C U115A | 0

Row | Variant | self-cleavage
97 | U12A A22U U39G U87C U109A | 0
98 | U12A A24G U96C | 0.09
99 | U12A A42U G54C U109C | 0.33
100 | U12A A43G U45G A121G | 1.02
101 | U12A A57G A94G | 0.28
102 | U12A A57U U91C | 0.11
103 | U12A A59U C76U A117G U119C | 1.56
104 | U12A A64C U85C U100C U112C | 0
105 | U12A A64G A136U | 0.28
106 | U12A A64U A142G | 0.56
107 | U12A A64U U115C U130C | 0.71
108 | U12A A69G U104C A140G | 0.63
109 | U12A A77G G86A | 0.13
110 | U12A A77G U96C | 0
111 | U12A A78G G126U A142G | 0.84
112 | U12A A79G U85C U104A | 0
113 | U12A A94G U102C U134A A142G | 0
114 | U12A A94U U115C U130C | 0.27
115 | U12A A121G A141G | 1.21
116 | U12A C18U A43G C103U | 0.77
117 | U12A C61U A78G | 0
118 | U12A G32A U132C A136U | 1.14
119 | U12A G35A A138G | 1.22
120 | U12A G55U A117C | 0.51

Row | Variant | self-cleavage
121 | U12A G60A U73C U112C U132A A136G | 0.11
122 | U12A G80C G114U | 1.34
123 | U12A U13A U100A A124G | 1.23
124 | U12A U13C A50U A79G | 2.3
125 | U12A U14C A142G | 0.5
126 | U12A U14C U45A U91A U104A | 0.69
127 | U12A U14C U100C A129G | 0.75
128 | U12A U15A U46C | 0.95
129 | U12A U15C A22G U39A U62C U100C U134A | 0
130 | U12A U20C A31G C90U U96G | 0
131 | U12A U23C A57G U96C | 0.84
132 | U12A U26A U112A | 1.15
133 | U12A U26C A30G A43U A64U U115C | 1.65
134 | U12A U26C G48A A79G | 0.63
135 | U12A U46A G114A A121G | 1.31
136 | U12A U46A G114C G137C A142G | 1.05
137 | U12A U46A U62C A69U U85C | 0.16
138 | U12A U46C U81C U143C | 1.44
139 | U12A U47C G54A | 1.87
140 | U12A U47C U130A U132C | 2.46
141 | U12A U62A C63U U87A | 0.07
142 | U12A U62C U85A A141G | 0.08
143 | U12A U73A U132C A136U U143G | 1.41
144 | U12A U85A A121C | 0.23

Row | Variant | self-cleavage
145 | U12C A22G A79G U134A | 0.95
146 | U12C A22G C38U A79G A136G | 0.64
147 | U12C A22G G33A A50U U143A | 0.55
148 | U12C A22G U62C A67U | 0
149 | U12C A22U A136G | 0.78
150 | U12C A22U C37U U96C | 0.2
151 | U12C A24G G36A A50U A65G | 0.56
152 | U12C A24G U91G | 0.26
153 | U12C A30G A57G | 0
154 | U12C A30G U45C G60C | 0
155 | U12C A30U G49U A77G | 0.89
156 | U12C A30U U100C | 1.31
157 | U12C A31C U47A A59G | 0.31
158 | U12C A31G A77U | 0.74
159 | U12C A31G G34C U96C U115C C120U A138G | 0
160 | U12C A31G G48A A67U U115A C120U | 0.25
161 | U12C A42G A50G A136G | 1.31
162 | U12C A42G A65G | 0.24
163 | U12C A42G A107G U119A | 1.78
164 | U12C A42G A121C A124U | 2.4
165 | U12C A42G G58U | 0.08
166 | U12C A42G U45A A79G U108G | 1.53
167 | U12C A42G U46C G58A U81C A140G | 0
